Among all 310,000 compounds or so, about 17,000 (5.5%) were called active. Another 11% or so got no clear call; they are omitted. Calls come from the whole dose curve; as a rule, active = well fitted inhibition curve with a large enough effect; inconclusive = small, poorly fitted or top-dose-only effect, or effect the other way; inactive = no such curve, though single readings can be large or run the other way. The list shows a part of the results, in another mix than the full data. More than one record can exist for a structure, and the calls need not agree.
% is set by controls: 0 for no effect and ±100 for the full control effect; potency is the fitted concentration of half-maximal effect.

The target of the assay is Nuclear receptor ROR-gamma (Mus musculus) (UniProt P51450). Put plainly: qHTS for inhibitors of ROR gamma transcriptional activity. Note: nearly all actives have a fitted effect of over 60% in size. As to conditions: Drosophila S2 Gal4-RORgamma UAS-luciferase reporter, 20 h; series mostly up to 53.6 µM; activity change, negative = inhibition: at the top concentration. A digest of the protocol: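 A Gal4/UAS one-hybrid system in insect cells: metallothionein-promoter Gal4–ROR gamma fusion plus Photinus luciferase reporter. Copper sulfate 700 uM final, 20 hr ambient incubation, luminescent detection after 10 min with reagent.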
Sequence of UniProt P51450 (P51450 whole entry, looked up, the tested form may be a part): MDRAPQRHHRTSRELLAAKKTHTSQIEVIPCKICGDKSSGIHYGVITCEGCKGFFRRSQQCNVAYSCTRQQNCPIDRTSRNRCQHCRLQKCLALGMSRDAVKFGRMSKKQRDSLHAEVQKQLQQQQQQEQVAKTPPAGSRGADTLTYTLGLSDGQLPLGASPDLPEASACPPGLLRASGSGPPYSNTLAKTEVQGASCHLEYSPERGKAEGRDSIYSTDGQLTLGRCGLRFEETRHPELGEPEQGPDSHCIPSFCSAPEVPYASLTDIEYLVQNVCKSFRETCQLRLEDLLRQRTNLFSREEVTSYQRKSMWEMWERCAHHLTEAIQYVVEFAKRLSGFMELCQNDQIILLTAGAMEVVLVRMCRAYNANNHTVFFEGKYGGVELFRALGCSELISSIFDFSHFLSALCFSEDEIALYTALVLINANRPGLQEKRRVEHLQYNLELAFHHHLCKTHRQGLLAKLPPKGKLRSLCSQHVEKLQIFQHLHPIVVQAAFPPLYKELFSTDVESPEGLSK
A general note: In qHTS, concentration-response curves come from the screen itself.
`C=CCc1ccc(OC(=O)c2ccccc2)c(OC)c1`: the “activity change, negative = inhibition” value was inactive: -0.229%.

`CCCC[C@H]1C(=O)N(c2ccccc2)N(c2ccc(O)cc2)C1=O`: the activity change, negative = inhibition was inactive: 5.25% [at 2.98 µM].

For the compound `C#Cc1ccc([C@H]2C=C(C(=O)N3CCN(Cc4ccccc4)CC3)O[C@@H](OCC)[C@@H]2CCCO)cc1`, the “activity change, negative = inhibition” value is inactive: 22.2%.

Consider `COc1cc(-c2ccc(N=Nc3ccc4c(S(=O)(=O)O)cc(S(=O)(=O)O)c(N)c4c3O)c(OC)c2)ccc1N=Nc1ccc2c(S(=O)(=O)O)cc(S(=O)(=O)O)c(N)c2c1O`, for which the “activity change, negative = inhibition” value was inactive: -28.2% [at 16.9 µM].

For `COc1ccc(-c2cc(C(=O)N/N=C(\C)c3ccco3)c3ccccc3n2)c(OC)c1`, the Potency is active: 6.31 µM.

For the compound `CC12CCC3c4ccc(O)cc4CCC3C1CCC2O` (centres undefined), the “activity change, negative = inhibition” value is inactive: -9.48%.

As to `Cc1cc(NC(=O)c2ccccc2)n(-c2nc3ccccc3[nH]2)n1`, the Potency is active: 1 µM.

For `CCNC(=O)/C(=C\c1ccc2c(c1)OCO2)NC(=O)c1ccc(Br)cc1`, the “activity change, negative = inhibition” value is inactive: 0.619%.

Take `COc1cc(CCN2C(=O)N[C@@H](c3cccc(C(F)(F)F)c3)C(C(C)=O)=C2C)cc(OC)c1OC`: the “activity change, negative = inhibition” value was inactive: -27.9%.

For `CCO[C@@H]1OC(C(=O)NCc2ccccc2)=C[C@H](C2CC2)[C@H]1CCCO`, the “activity change, negative = inhibition” value was inactive: 6.9%.

Take `COC(=O)C1C2CC3c4[nH]c5cc(OC)ccc5c4CCN3CC2CC(OC(=O)c2cc(OC)c(OC)c(OC)c2)C1OC` (centres undefined): the Potency result was “inactive”.

For the compound `O=C(OC1CCOC1=O)c1ccc(-c2nc3ccccc3s2)s1` (centres undefined), the Potency was active: 3.55 µM.

Turning to `CCOC(=O)[C@@H]1[C@H]2COc3ccccc3[C@@H]2N2C(=O)N(c3ccc(Cl)cc3)C(=O)[C@]12C`, the “activity change, negative = inhibition” value is inactive: -0.14%.

Consider `Cc1nc(-c2ccc(S(=O)(=O)NCc3ccccn3)s2)cs1`, for which the Potency was active: 10 µM.

With `COc1ccc(/C=C2\SC(=O)N(CCC(=O)Nc3ccccc3)C2=O)cc1OC`, the “activity change, negative = inhibition” value is inactive: 3.35%.

Turning to `COc1cc(O)c2c(=O)c(O)c(-c3ccc(O)c(O)c3)oc2c1`, the “activity change, negative = inhibition” value was inactive: 12.2%.

For `[O-][n+]1ccccc1SSc1cccc[n+]1[O-]`, the Potency is active: 0.355 µM.

As to `Cn1c(=O)c(C(=O)COC(=O)c2cc(C(F)(F)F)nc3ccccc23)c(N)n(Cc2ccccc2)c1=O`, the “activity change, negative = inhibition” value was inactive: 16.7%.

Consider `CCOC(=O)c1c(-c2ccc(OC)cc2)csc1/N=C/C1C(=O)CCCC1=O`, for which the Potency was active: 3.16 µM.

For `CC1=NN(c2ccccc2)C(=O)/C1=C\C=C1\N(C)c2ccccc2C1(C)C`, the “activity change, negative = inhibition” value was inactive: 9.62%.

With `O=C(N/C(=C\c1cccc([N+](=O)[O-])c1)C(=O)N1CCCCC1)c1cccs1`, the “activity change, negative = inhibition” value was inactive: -6.09%.

As to `CC(=O)c1ccc(NC(=S)NC(=O)CC(C)C)cc1`, the Potency was active: 12.6 µM.

As to `CCN(CC)C(=O)CC(c1ccc(N(C)C)cc1)c1c(O)cc(OC)cc1OC` (centres undefined), the “activity change, negative = inhibition” value was inactive: -27.9%.

On to `O=C(O)c1ccc2c3c1cccc3c(=O)n1c3ccccc3nc21`, for which the “activity change, negative = inhibition” value was inactive: 16.5%.

On to `NC(CSSCC(N)C(=O)O)C(=O)O` (centres undefined), for which the activity change, negative = inhibition was inactive: -7.83% [at 10 µM].

As to `COc1ccc(NC(=S)N(CCCN2CCCC(C)C2)Cc2cccs2)cc1` (centres undefined), the Potency was active: 11.2 µM.

For the compound `COc1cc(OC)cc(-c2nnc(NC(=O)Cc3ccc(F)cc3)o2)c1`, the Potency was active: 0.708 µM.

`C[C@@H](C(=O)Nc1ccc2ccccc2c1)[C@@H]1C[C@@]1(C)[C@@H](NC(=O)c1cnccn1)c1ccccc1`: the Potency result was “inactive”.

Regarding `CC(=O)SC(C[N+](=O)[O-])c1cn(C(C)=O)c2ccccc12` (centres undefined), the Potency was active: 11.2 µM.

Regarding `C[C@@H](C(=O)NCC1CC1)[C@@H]1C[C@@]1(C)[C@@H](NC(=O)OCc1ccccc1)c1ccccc1`, the “activity change, negative = inhibition” value is inactive: 22.8%.

Regarding `Cc1cc(N=Nc2ccc3ccccc3c2)ccc1O`, the Potency was active: 11.2 µM.

Consider `O=C(NC(=S)NNC(=O)c1ccco1)c1ccc(Br)cc1`, for which the Potency was active: 12.6 µM.

On to `Cc1ccc(/C=N/Nc2ccc3ccccc3n2)o1`, for which the Potency is active: 12.6 µM.

As to `Cc1ccc(Cl)cc1NC(=S)N(Cc1ccco1)C(C)c1cccs1` (centres undefined), the Potency was active: 3.55 µM.

Take `Cc1[nH]n(-c2ccc(Br)cc2)c(=O)c1/C=N/NC(=O)c1ccccc1`: the Potency is active: 0.282 µM.

Take `CCCn1nnnc1NC(=O)c1cc(Cl)ccc1Cl`: the Potency was active: 1.58 µM.

For the compound `CC(C)CC(C)c1cc(N)nc2nc3ccccc3n12` (centres undefined), the Potency is active: 15.8 µM.

Take `CC1=CC(C)(C)Nc2ccccc21`: the Potency entry is “inactive”.

Consider `O=c1c(/C=N/OCc2ccc(Cl)cc2Cl)c[nH]n1-c1cccc(Cl)n1`, for which the Potency was active: 12.6 µM.

`CC(C)CCOCC(O)CCC(=O)NNC(=S)Nc1ccccc1` (centres undefined): the Potency is active: 11.2 µM.

For `OCc1cc(C(O)CNCCCCCCOCCCCc2ccccc2)ccc1O` (centres undefined), the activity change, negative = inhibition is inactive: 1.99% [at 10 µM].

As for `Cc1[nH]n(-c2ccccc2)c(=O)c1/C=N/NC(=O)c1ccoc1C`, the Potency is active: 0.251 µM.

For `Cc1cc(C)n(-c2nc(NCc3cccnc3)c3c4c(sc3n2)COC(C)(C)C4)n1`, the Potency is active: 3.98 µM.

Take `COC(=O)[C@@]1(Cc2ccc(F)cc2)[C@H]2c3cc(C(=O)N(C)C)n(Cc4c(CO)[nH]cc(C)c4=O)c3C[C@H]2CN1C(=O)c1ccccc1`: the “activity change, negative = inhibition” value is inactive: 3.05%.

Turning to `c1ccc(-c2ccc(-c3ccccn3)nn2)nc1`, the Potency was active: 5.62 µM.

Turning to `NC(=O)C1=C[C@H](c2ccc(Br)cc2)C[C@H](OCc2ccc(CO)cc2)O1`, the “activity change, negative = inhibition” value is inactive: 24.7%.

As for `CS(=O)(=O)CCNCc1nc(-c2ccc3ncnc(Nc4ccc(OCc5cccc(F)c5)c(Cl)c4)c3c2)cs1`, the “activity change, negative = inhibition” value is inactive: -43.1%.

On to `COC(=O)[C@@H](NC(=O)O[C@@H]1C(=O)c2ccc(OC)cc2O[C@H]1c1cccc(C(F)(F)F)c1)C(C)C`, for which the “activity change, negative = inhibition” value is inactive: -26.7%.

Regarding `CNC(=O)[C@@H]1C[C@H]1[C@@H](NC(=O)OCc1ccccc1)c1ccccc1`, the “activity change, negative = inhibition” value is inactive: -20.8%.

Regarding `CC1CNCCN1S(=O)(=O)c1cccc2cnccc12` (centres undefined), the “activity change, negative = inhibition” value was inactive: -3.74%.

Consider `O=C(Nc1ccccc1)C1=C[C@H](c2ccc(C(F)(F)F)cc2)C[C@H](OCc2ccc(CO)cc2)O1`, for which the “activity change, negative = inhibition” value is inactive: -4.9%.

Turning to `CCC[C@@H]1C[C@@]1(CCC)[C@@H](NC(=O)c1ccccc1)c1ccc(C(=O)OC)cc1`, the “activity change, negative = inhibition” value was inactive: 12%.

Turning to `C[C@@H](C(=O)CC(=O)OC(C)(C)C)[C@@H](O)c1ccccc1`, the “activity change, negative = inhibition” value was inactive: 0.134%.

Regarding `Cc1cccc(Nc2ccccc2C(=O)O)c1C`, the Potency entry was “inactive”.

Turning to `c1ccc2c(c1)Cc1cc3ccccc3nc1-2`, the “activity change, negative = inhibition” value was inactive: -43.5%.

With `CN(C)/C=C1/N=C(c2ccccc2)OC1=O`, the “activity change, negative = inhibition” value was inactive: 10.6%.

As for `COc1c(O)cc2oc3cc(O)c(CC=C(C)C)c(O)c3c(=O)c2c1CC=C(C)C`, the “activity change, negative = inhibition” value is inactive: 22.9%.

Turning to `COc1cccc2cc(-c3n[nH]c(=S)n3C)oc12`, the Potency is active: 3.55 µM.

As to `CC(C)NCC(O)c1cc(O)cc(O)c1` (centres undefined), the “activity change, negative = inhibition” value is inactive: 14.2%.

For the origin of these results see PubChem BioAssay AID2551 (National Center for Advancing Translational Sciences (NCATS), 2010).
